IC50 is the fitted dose that halves viability relative to control wells, and lower means more sensitive; a fit beyond the top or the lowest dose is shown as a bound at that dose. AUC sums up the same curve from the lowest dose to the 256-fold higher top dose; values near 1 show little effect. For some of these results: Where the top dose is marked as inferred, it is not printed in the source and was worked back from the curve model. For some of these results: Where an entry number is given, a second screen of the drug exists; the two often differ.
What was measured:
Test in all cases: Viability of human cancer cell lines after 72 h of drug (GDSC screen)
[1] = compound: C=CC(=O)Nc1cc(-n2c(=O)ccc3cnc4ccc(-c5cn[nH]c5)cc4c32)ccc1C [QL-X-138]; conditions: top dose 10.24 µM; top dose inferred
Experimental: (§1)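 Human cancer cell lines in 384-well plates, medium with 10% serum, drug for 72 h over a 256-fold dose range (nine 2-fold or five 4-fold steps up to the top dose). Adherent lines were fixed and stained with the nucleic acid dye Syto60, suspension lines read with resazurin; signal relative to control wells, capped at 0 and 100%. One two-parameter sigmoid per drug and line, fitted in a mixed model over all curves with the slope shared within a line.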

[2] = compound: COc1cc(N2CCC(O)CC2)ccc1Nc1cc(Nc2ccccc2S(=O)(=O)C(C)C)c2cc[nH]c2n1 [MPS-1-IN-1]; conditions: top dose 20 µM; top dose inferred
Experimental: as §1

[3] = compound: Cc1ccc(F)c(NC(=O)Nc2ccc(-c3cccc4[nH]nc(N)c34)cc2)c1 [ABT-869]; conditions: top dose 1.024 µM; top dose inferred
Experimental: as §1

[4] = compound: C/C=C(/C)C(=O)O[C@H]1C(C)=C2[C@H]([C@@H]1OC(=O)CCCCCCC)[C@@](C)(OC(C)=O)C[C@H](OC(=O)CCC)[C@@]1(O)[C@H]2OC(=O)[C@@]1(C)O [Thapsigargin]; conditions: top dose 0.512 µM; top dose inferred
Experimental: as §1

[5] = compound: COc1cc(O)c2c(c1)/C=C/C[C@H](O)[C@H](O)C(=O)/C=C\C[C@H](C)OC2=O [(5Z)-7-Oxozeaenol]; conditions: top dose 10 µM; top dose inferred
Experimental: as §1

[6] = compound: C[C@]1(c2nc3c(C(N)=O)cccc3[nH]2)CCCN1 [ABT-888]; conditions: top dose 5 µM; top dose inferred
Experimental: as §1

[7] = compound: Cc1cnc(-c2cnc(NCCNc3ccc(C#N)cn3)nc2-c2ccc(Cl)cc2Cl)[nH]1 [CHIR-99021]
Experimental: as §1

[8] = compound: Nc1ccn([C@@H]2O[C@H](CO)[C@@H](O)[C@@H]2O)c(=O)n1 [Cytarabine]; conditions: top dose 2 µM
Experimental: as §1

[9] = compound: COc1nc(C)cnc1NS(=O)(=O)c1cccnc1-c1ccc(-c2nnco2)cc1 [Zibotentan]; conditions: top dose 20 µM; top dose inferred
Experimental: as §1

[10] = compound: CCn1c(-c2nonc2N)nc2cnc(Oc3cccc(NC(=O)c4ccc(OCCN5CCOCC5)cc4)c3)cc21 [GSK269962A]; conditions: top dose 5 µM; screen: GDSC drug entry 1192; top dose inferred
Experimental: as §1

[11] = compound: COc1cc2ncnc(-n3nc(-c4ccccn4)nc3N)c2cc1OC [CP466722]; conditions: top dose 16 µM; top dose inferred
Experimental: as §1

[12] = compound: O=c1cc(-c2cccc3c2Sc2ccccc2S3)oc(N2CCOCC2)c1 [KU-55933]; conditions: top dose 10 µM
Experimental: as §1

[13] = top dose 2.56 µM, screen: GDSC drug entry 154
[14] = top dose 10 µM, screen: GDSC drug entry 1241, top dose inferred

Cell Line | AUC [1] | IC50 [1] [µM] | AUC [2] | IC50 [2] [µM] | AUC [3] | IC50 [3] [nM] | AUC [4] | IC50 [4] [nM] | AUC [5] | IC50 [5] [µM] | AUC [6] | IC50 [6] [µM] | AUC [7, 13] | IC50 [7, 13] [nM] | AUC [7, 14] | IC50 [7, 14] [nM] | AUC [8] | IC50 [8] [nM] | AUC [9] | IC50 [9] [µM] | AUC [10] | IC50 [10] [nM] | AUC [11] | IC50 [11] [µM] | AUC [12] | IC50 [12] [µM]
Mewo (melanoma, adherent) | 0.975 | > 10.2 | 0.985 | > 20 | 0.98 | > 1020 | 0.912 | > 512 | 0.624 | 1.48 | 0.984 | > 5 | 0.974 | > 2560 | 0.961 | > 10000 | 0.772 | 923 | 0.984 | > 20 | 0.956 | > 5000 | 0.984 | > 16 | – | –
NCI-H2029 (small cell lung carcinoma, adherent) | 0.887 | 9.48 | 0.964 | > 20 | 0.992 | > 1020 | 0.874 | 417 | 0.834 | 5.65 | 0.949 | > 5 | 0.992 | > 2560 | 0.992 | > 10000 | 0.972 | > 2000 | 0.992 | > 20 | 0.967 | > 5000 | 0.96 | > 16 | – | –
NCI-H2122 (lung adenocarcinoma, adherent) | 0.961 | > 10.2 | 0.924 | > 20 | 0.988 | > 1020 | 0.2 | – | 0.874 | 8.7 | 0.985 | > 5 | 0.876 | 2260 | 0.853 | 7030 | 0.68 | 383 | 0.988 | > 20 | 0.985 | > 5000 | 0.909 | > 16 | – | –
UMC-11 (lung carcinoid, adherent) | 0.684 | 1.96 | 0.899 | > 20 | 0.99 | > 1020 | 0.325 | 11.1 | 0.945 | > 10 | 0.991 | > 5 | – | – | – | – | 0.984 | > 2000 | 0.991 | > 20 | 0.401 | 172 | 0.787 | 6.18 | – | –
VMRC-RCW (kidney, adherent) | 0.934 | > 10.2 | 0.983 | > 20 | 0.989 | > 1020 | 0.265 | 7.26 | – | – | 0.984 | > 5 | 0.934 | > 2560 | – | – | 0.868 | 1610 | 0.989 | > 20 | – | – | 0.892 | > 16 | – | –
YKG-1 (glioma, adherent) | 0.556 | 0.912 | 0.918 | > 20 | 0.977 | > 1020 | 0.285 | 7.78 | 0.651 | 1.65 | 0.984 | > 5 | 0.986 | > 2560 | 0.973 | > 10000 | – | – | 0.977 | > 20 | 0.774 | 1990 | 0.839 | 11.2 | 0.939 | > 10

Source: the supplement of paper PMC4967469
